Data taken from patent US20050191301A1 (Janssen / Centocor, published 2005).
Each block holds one binder with its values, some of them ahead of it.

Target: T1, EPO receptor (on UT-7/EPO cells) (human, UniProt P19235 25-508)
T1 sequence (looked up): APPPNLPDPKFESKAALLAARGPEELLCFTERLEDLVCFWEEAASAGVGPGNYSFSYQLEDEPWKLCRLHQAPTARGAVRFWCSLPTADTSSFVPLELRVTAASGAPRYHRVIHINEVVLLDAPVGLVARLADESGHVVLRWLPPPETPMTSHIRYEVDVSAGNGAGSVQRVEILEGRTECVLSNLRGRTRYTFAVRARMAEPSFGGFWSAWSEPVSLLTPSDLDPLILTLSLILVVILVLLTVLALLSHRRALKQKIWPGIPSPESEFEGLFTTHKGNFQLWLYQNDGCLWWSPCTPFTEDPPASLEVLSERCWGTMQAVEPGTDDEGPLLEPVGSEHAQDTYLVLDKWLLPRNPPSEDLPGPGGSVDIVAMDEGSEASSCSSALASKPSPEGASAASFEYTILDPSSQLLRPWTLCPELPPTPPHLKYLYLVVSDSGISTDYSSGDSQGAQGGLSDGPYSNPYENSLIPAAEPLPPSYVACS
Assay: cell-based or functional assay

activity in an in vitro cell proliferation assay, relative to the EMP-1 peptide: ~550 fold
B1: EMP-NfusCG1 (Fc fusion)
chain: QIQGGTYSCHFGPLTWVCKPQGGGSGGGSGTLVTVSS[human IgG1 Fc not listed]

fold decrease in potency in the UT-7/EPO in vitro bioactivity assay, relative to EMP-NfusCG1: 13 fold | potency in the UT-7/EPO in vitro bioactivity assay, relative to EMP-1: 40 fold | potency in the UT-7/EPO in vitro bioactivity assay, relative to EMP-NfusCG1 (average): ~10 fold | potency in the UT-7/EPO in vitro bioactivity assay, relative to rHuEPO: 60 fold
B2: EMP-NfusCG4 (Fc fusion)
chain: QIQGGTYSCHFGPLTWVCKPQGGGSGGGSGTLVTVSS[human IgG4 Fc not listed]
